Measured values reported in PubChem BioAssay AID1347120 (National Center for Advancing Translational Sciences (NCATS), 2019).
Screen size: about 390,000 compounds; about 930 (0.24%) were called active. The inconclusive results got no clear call from the source; some entries with a clear call stand among them for comparison. The call rests on the fitted dose curve; in most records, active means well fitted activation curve with a large enough effect; inconclusive means small, poorly fitted or top-dose-only effect; inactive means no such curve, though single readings can be large or run the other way. Where the call is inconclusive, the potency comes from a doubtful curve fit.

test: qHTS for Suppressors of FUS Proteinopathy: Primary screen using FUS-linked yeast assay; further: nearly all actives have a fitted effect of over 55% in size;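 on growth rescue (activation): plate controls were DMSO vehicle for no effect and reference control for full effect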; conditions: S. cerevisiae FUS-expressing, OD600, 24 h; Potency: growth rescue; growth rescue (activation): at 76.6 µM (top of the series)
Summary of the method: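 Read-out: OD at 600 nm after 24hr at 30C, reporting rescue of FUS-induced yeast toxicity. Cells at OD 0.005 in galactose (2%) minimal medium; compounds tested in a dilution series; CP55940 titration from 92uM final as control.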
Potency means the concentration at half of the fitted maximal effect; tags describe the fitted curve by direction and shape.

Compound | Potency | growth rescue (activation)
Cc1ccc(NS(=O)(=O)c2ccc(Cl)s2)nc1 | inactive | 
N=c1c(C(=O)NCc2ccccc2)cc2c(=O)n3ccccc3nc2n1CCCN1CCOCC1 | inactive | 
O=C1CN(C(=O)c2ccc(S(=O)(=O)N3CCCCC3)cc2)C(c2ccc(F)cc2)c2cc(F)ccc2N1 (centres undefined) | inconclusive: 28.2 µM [activator, single point] | 
COc1cccc(C(=O)NCCSc2c(-c3ccc(F)cc3)[nH]c3ccccc23)c1OC | inconclusive: 10 µM [activator, full curve, poor fit] | 
Cc1ccc(C(=O)NCCn2c(C)cc3ccccc32)cc1C | inactive | 
CCOC(=O)c1ccc(-n2c(CN3CCC(C(N)=O)CC3)nc3ccc([N+](=O)[O-])cc3c2=O)cc1 | inconclusive: 17.8 µM [activator, partial curve, poor fit] | 
CCN1C(=O)[C@H]2[C@@H](c3ccc(C)cc3)N3C(=O)N(c4cccc(C)c4)C(=O)[C@@]3(Cc3ccccc3)[C@H]2C1=O | inactive | 
Cc1ccc(C2=NN3C(C2)c2ccccc2OC32C(=O)Nc3ccccc32)cc1 (centres undefined) | inconclusive: 22.4 µM [activator, single point] | 
Cc1ccc(NC(=O)Cn2c(=O)n(CCCCCC(=O)NCc3ccc(F)cc3)c(=O)c3sccc32)cc1C | inactive | 
CCCOc1ccc(-c2nn(-c3ccccc3)cc2C2NC(=O)NC(C)=C2C(=O)OC(C)C)cc1 (centres undefined) | inconclusive: 25.1 µM [activator, partial curve, poor fit] | 
CCOc1ccccc1/C=C/c1onc(C)c1S(=O)(=O)N1CCC(C(=O)N(CC)CC)CC1 | inconclusive: 39.8 µM [activator, single point] | 
CC(C)c1ccc(NC(=O)c2cc(S(=O)(=O)NCC3COc4ccccc4O3)ccc2F)cc1 (centres undefined) | inconclusive: 31.6 µM [activator, single point] | 
COc1ccc(-c2cnnn2-c2ccc(NC(=O)c3c(F)cccc3F)cc2)cc1 | inactive | 
Cc1c(Cl)ccc2c(C(=O)NCCN3CCCCC3)cc(-c3ccccn3)nc12 | inconclusive: 10 µM [activator, partial curve] | 
CS(=O)(=O)N(Cc1ccccc1)c1ccccc1C(=O)Nc1ccccc1C(=O)NCc1ccco1 | inconclusive: 50.1 µM [activator, partial curve, poor fit] | 
COc1cc2c(cc1NC(=O)CSc1nnc(COc3ccc(Cl)cc3)n1C)oc1ccccc12 | inconclusive: 44.7 µM [activator, single point] | 
CC(C)Cn1c(=O)c2ccccc2n2c(CCC(=O)Nc3cccc(Cl)c3)nnc12 | inactive | 
N#CC1=C(N)N(c2ccc(Oc3ccccc3)cc2)C(=O)C1 | inconclusive: 22.4 µM [activator, partial curve, poor fit] | 
Cc1cccc(-c2cccc3c4c([nH]c23)[C@@H]2C[C@H](N(C)C(=O)OCc3ccccc3)[C@H]([C@H](C)O)CN2CC4)c1 | inconclusive: 28.2 µM [activator, single point] | 
Cc1ccc(C(=O)COC(=O)c2ccc3c(c2)C(=O)N(c2cccc4ncccc24)C3=O)cc1C | inconclusive: 11.2 µM [activator, full curve, poor fit] | 
O=S(=O)([N-]c1nc2ccccc2nc1-[n+]1ccc(CCCc2ccccc2)cc1)c1cccs1 | inconclusive: 8.91 µM [activator, full curve] | 
CC1CN(c2ccnc3cc(Cl)ccc23)CCN1C(=O)c1ccc(Cl)cc1 (centres undefined) | inactive | 

Compound | Potency | growth rescue (activation)
COc1ccc(NC(=O)CS(=O)(=O)c2ccccc2Cl)cc1 | inactive | 
Cc1cccc(-n2c(SCC(=O)N3CC(=O)Nc4ccccc43)nc3ccccc3c2=O)c1C | inconclusive: 17.8 µM [activator, partial curve, poor fit] | 
CCOC(=O)c1cc2oc(C(c3nnnn3C3CCCCC3)N3CCOCC3)cc2[nH]1 (centres undefined) | inconclusive: 39.8 µM [activator, single point] | 
C[C@@H]1CN([C@H](C)CO)C(=O)CCCn2cc(nn2)CO[C@H]1CN(C)S(=O)(=O)c1ccc(-n2cccn2)cc1 | inactive | 
C[C@H](CO)N1C[C@H](C)[C@@H](CN(C)C(=O)Nc2ccccc2)Oc2c(NC(=O)Nc3ccc(C(F)(F)F)cc3)cccc2C1=O | inconclusive: 50.1 µM [activator, single point] | 
COC(=O)C1=CC(C(=O)c2cccs2)=NN(c2ccc(OC)cc2)C1C(=O)OC (centres undefined) | inactive | 
COC(=O)c1cc(N=Nc2sc(N)nc2C)cc(C(=O)OC)c1 | inconclusive: 50.1 µM [activator, single point] | 
CCOc1cc(N2CCOCC2)c(OCC)cc1NC(=O)COc1cccc2cccnc12 | inconclusive: 39.8 µM [activator, single point] | 
Cc1cc(=O)n(CC=C(Cl)Cl)c2ccccc12 | inconclusive: 35.5 µM [activator, single point] | 
CCOC(=O)Cn1c2ccc(C)cc2c2nc(C)sc21 | inactive | 
COc1ccc(NC(=O)c2c(NCc3ccc(C)o3)sc3c2CCC(C)C3)c(OC)c1 (centres undefined) | inconclusive: 31.6 µM [activator, single point] | 
COc1ccccc1NC(=O)COC(=O)CCC(=O)c1cccs1 | inactive | 
Cc1ccc(C2CC(c3ccc(NS(C)(=O)=O)cc3)=NN2C(=O)c2ccco2)cc1 (centres undefined) | inconclusive: 28.2 µM [activator, partial curve, poor fit] | 
CSc1nc2c(c(C(F)(F)F)n1)CC(C)CC2 (centres undefined) |  | inconclusive: -75% [activator]
Cc1ccc(CNc2ncnc3c2cnn3-c2ccccc2)cc1 | inactive | 
Cc1cc(Cl)ccc1OC(C)C(=O)N1CCCN(C(=O)C(C)Oc2ccc(Cl)cc2C)CC1 (centres undefined) | inconclusive: 50.1 µM [activator, single point] | 
CC1=C(C(=O)Nc2ccccc2C)C(c2ccc(C)o2)n2c(s/c(=C/c3ccccc3)c2=O)=N1 (centres undefined) | inconclusive: 17.8 µM [activator, partial curve, poor fit] | 
Cc1nc2cccnc2n1-c1cccc(C(=O)NCCc2ccc(Cl)cc2)c1 | inconclusive: 20 µM [activator, partial curve, poor fit] | 
CCOc1ccc(CNc2ccc(N3CCCC3)cc2)cc1 | inconclusive: 35.5 µM [activator, single point] | 
Cc1cc(C)c(C)c(OCC(=O)O/N=C(\N)c2cccnc2)c1 | inconclusive: 39.8 µM [activator, single point] | 
COc1ccc2[nH]c(C(=O)N3CCC(CO)(Cc4cccc(C(F)(F)F)c4)CC3)c(C)c2c1 | inconclusive: 50.1 µM [activator, single point] | 
CC(=O)N1CCN(C(=O)c2ccc3oc(CCCc4ccccc4)nc3c2)CC1 | inactive | 

Compound | Potency | growth rescue (activation)
C=CCCC(=O)Nc1nc(C)c(-c2csc(Nc3ccc(Cl)cc3)n2)s1 | inconclusive: 31.6 µM [activator, single point] | 
Cc1ccc(S(=O)(=O)Nc2ccc3c(c2)C(=O)N([C@@H](C)CO)C[C@@H](C)[C@@H](CN(C)S(=O)(=O)c2ccccc2)OCCCC[C@H](C)O3)cc1 | inconclusive: 20 µM [activator, partial curve, poor fit] | 
O=C(c1nn2c(C(F)(F)F)cc(-c3ccc(F)cc3)nc2c1Cl)N1CCOCC1 | inactive | 
COc1ccc(C(=O)CSc2nc3ccccc3n2CC(=O)NC(C)(C)C)cc1 | inactive | 
CCOc1cc(/C=C2\C(=O)N(CCc3ccc(OC)c(OC)c3)C(C)=C2C(=O)OC)ccc1O | inconclusive: 50.1 µM [activator, single point] | 
Cc1cc(C)c2c(C)c(C(=O)N3CCC(c4nc5ccccc5s4)CC3)oc2c1 | inconclusive: 50.1 µM [activator, single point] | 
CCOC(=O)C1=C(CSc2nc3c(cc2C#N)CN(C)CC3)OC(N)=C(C#N)C1c1ccc(Cl)cc1 (centres undefined) | inconclusive: 10 µM [activator, partial curve, poor fit] | 
COc1ccc(C(=O)N2CCC(Oc3cccnc3)CC2)c(OC)c1 | inactive | 
COC(=O)c1ccc(Cn2ccc3ccc(-c4ccc5ccn(C(=O)C6CCCCC6)c5c4)cc32)cc1 | inconclusive: 28.2 µM [activator, single point] | 
CCOc1ccccc1CNC(=O)c1cnc2sc(N3CCC(C)CC3)nn2c1=O | inactive | 
CN(C)Cc1csc(Nc2ccc(C(F)(F)F)cn2)n1 | inactive | 
CCOC(=O)c1c(NC(=O)Cc2ccccc2)sc2c1CCN(C)C2 | inactive | 
N#CC1=C(N)OC2=C(CC/C2=C\c2ccccc2)C1c1ccccc1 (centres undefined) | inconclusive: 28.2 µM [activator, single point] | 
CC(=O)Nc1ccc(-c2csc(NCc3ccccc3)n2)cc1 | inactive | 
CCOC(=O)N1CCN(C(=O)COc2cccc3c2CCN(Cc2ccccc2C)C3=O)CC1 | inactive | 
CCn1c(=O)cc(SCC(=O)N2CCN(c3cc(C)ccc3C)CC2)c2ccccc21 | inconclusive: 20 µM [activator, partial curve] | 
CCCCCN(C(=O)CCC(=O)OCc1ccc(Cl)cc1Cl)c1c(N)n(CCCC)c(=O)[nH]c1=O | inconclusive: 15.8 µM [activator, partial curve, poor fit] | 
COc1ccc(C(CNC(=O)c2ccc(Cl)c(S(=O)(=O)N3CCCC3)c2)N2CCCC2)cc1 (centres undefined) | inconclusive: 22.4 µM [activator, partial curve, poor fit] | 
COc1ccccc1NC(=O)CCNS(=O)(=O)c1ccc2c(c1)CCCC(=O)N2 | inactive | 
Cc1cc(-c2n[nH]c(=S)n2N=Cc2c3ccccc3cc3ccccc23)n[nH]1 | inactive | 
